Reference: PubChem BioAssay AID1963576 (National Center for Advancing Translational Sciences (NCATS), 2024)
The whole screen tested about 46,000 compounds, of which about 60 (0.1%) were called active. Another 3% or so got no clear call; they are omitted. Calls come from the whole dose curve; as a rule, active = well fitted inhibition curve with a large enough effect; inconclusive = small, poorly fitted or top-dose-only effect; inactive = no such curve, though single readings can be large or run the other way. The list shows a part of the results.

experiment: Primary qHTS assay for Inhibitors of ovarian cancer metastasis using an organotypic tumor microenvironment (TME) model.; note: nearly all actives have a fitted effect of over 65% in size;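 for activity change, negative = inhibition: plate controls were DMSO wells for no effect and tomatine positive control wells for full effect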; conditions: SKOV3ip1-GFP adhesion/invasion on 3D omental model, fluorescence; series mostly up to 45.8 µM; activity change, negative = inhibition: at the top concentration
Summary of the method: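 A 3D layer of primary human omental fibroblasts, mesothelial cells, fibronectin and collagen I, grown 48 hr, received SKOV3ip1-GFP cells in serum-free medium plus compounds at 0.36-46 umol/L. After 2 hr RT and 16 hr 37 C, fixed adherent GFP cells were counted; normalized to DMSO and tomatine.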

Activity change, negative = inhibition, inactive:
CCOc1ccc(CCNC(=O)CN2C(=O)COc3ccc(S(=O)(=O)N(CC)CC)cc32)cc1 1.23%
COc1ccccc1CNC(=O)C(=O)NCC(c1cccnc1)N1CCN(c2ccc(F)cc2)CC1 (stereo not drawn) 2.22%
COc1ccccc1NC(=O)COC(=O)CC(C)(C)CC1=NS(=O)(=O)c2ccccc2N1 8.13%
CSc1ccc(C2c3[nH]c4ccccc4c3CCN2C(=O)CCC2CCCC2)cc1 (stereo not drawn) -1.29%
COC(=O)c1c(-c2cccs2)csc1NC(=O)c1ccc(C(C)(C)C)cc1 -1.84%
COc1ccc(-c2nnc(SCC(=O)c3ccc(NC(C)=O)cc3)o2)cc1OC -0.327%
COc1ccc(-c2nc3ccccc3o2)cc1NC(=O)c1ccc(OCC(C)C)cc1 -2.61%
CCc1ccc(-n2c(=O)c3ccc(C(=O)NCCc4ccccc4)cc3n(Cc3ccccc3C#N)c2=O)cc1 4.18%
Cc1ccc2c(=O)cc(C(=O)Nc3c(C(=O)c4ccccc4)oc4ccccc34)oc2c1 1.32%
CCOc1ccc(NS(=O)(=O)c2ccc3[nH]cc(C(=O)N(C)C4CCCCC4)c(=O)c3c2)cc1 2.91%
CCOC(=O)c1c(-c2ccc(C)cc2C)csc1NC(=O)c1ccccc1Cl 1.01%
NC(=O)C1CCN(C(=O)c2ccc3c(c2)N(Cc2cccc(Cl)c2)C(=O)c2ccccc2S3(=O)=O)CC1 15.6%
CC(CNC(=O)c1ccc(Nc2nc3ccccc3n3nnnc23)cc1)c1ccccc1 (stereo not drawn) 2.64%
COc1ccc(C2C(=O)N(C3CCCCCC3)CC(=O)N2Cc2ccccc2)cc1 (stereo not drawn) -14.3%
COC(=O)c1c(-c2cccs2)csc1NC(=O)COc1ccccc1 -4.83%
NC(=O)Cn1c(=O)n(CCCCCC(=O)NCc2ccccc2Cl)c(=O)c2sccc21 -8.83%
CCCn1c2ccccc2c2cnn(CC(=O)NC(C)CC)c(=O)c21 (stereo not drawn) 7.46%
COc1ccc(OC(=O)CSc2nnc(-c3ccc(F)cc3)o2)cc1 8.43%
CCCCOC(=O)/C(C#N)=C/c1ccc(-c2ccc(Br)cc2)o1 -12.1%
Cc1ccc(N2C(=O)CSC23C(=O)N(CC(=O)Nc2ccc(C)cc2C)c2ccccc23)cc1 (stereo not drawn) -4.3%
CCc1cccc(C)c1NC(=O)c1nc2ccccc2nc1N1CCCCC1 -5.41%
Cc1ccc(NC(=O)CCCN2C(=O)COc3ccc(C)cc32)c(C)c1 1.32%
Cc1ccc([N+](=O)[O-])c(Oc2ncnc3c2oc2ccccc23)c1 -14.3%
Cc1ccc(C)c(N2CCN(S(=O)(=O)c3ccc4c(c3)CCCN4C(=O)C3CCC3)CC2)c1 0.555%
Cc1ccc(CNC(=O)CN2C(=O)CSc3ccc(S(=O)(=O)N4CCCC4)cc32)cc1 2.74%
COc1cccc(-c2nc3c(c(SCc4ccccc4Cl)n2)Cc2c(CO)cnc(C)c2O3)c1 -8.7%
CN(C)c1ccc(CNC(=O)CN2C(=O)CCn3nc(-c4cn(C)c5ccccc45)cc32)cc1 2.3%
Cc1cc2oc(C(=O)Nc3sc4c(c3C(=O)NCc3ccccc3)CCCC4)cc(=O)c2cc1C -0.872%
COc1ccc(CNS(=O)(=O)c2ccc(F)c(C(=O)Nc3c(C)cc(C)cc3C)c2)cc1 -8.28%
CCCN(CCC)C(=O)c1cn(CC)c2ccc(S(=O)(=O)N3CCCCC3)cc2c1=O -7.55%
CCC(CC)C(=O)NCc1nc2cccnc2n1Cc1ccc(F)cc1 -20.8%
O=C(NCCCO)C(=O)Nc1c2c(nn1-c1ccccc1)CSC2 -5.9%
COc1ccc(-c2noc(CN(C(=O)Cc3ccc(C)cc3)C(C)C)n2)cc1 -19.7%
COCCCNC(=O)c1sc2nc(C)c(C(=O)Nc3ccc(C)cc3C)c(-c3ccc(Br)cc3)c2c1N 21.4%
CCC(C)NC(=O)CSc1nnc(-c2ccc(C)cc2)c(-c2ccc(C)cc2)n1 (stereo not drawn) 2.07%
Cc1ccc(CSCCC(=O)N2CCN(c3cc(C)ccc3C)CC2)cc1 0.237%
CCCN(CCC)C(=O)C1CCCN(c2ncnc3onc(-c4ccc(F)cc4)c23)C1 (stereo not drawn) 6.98%
Cc1ccc(C(=O)Nc2ccccc2C(=O)OCc2cc(=O)n3nc(C4CC4)sc3n2)cc1 0.555%
COc1cc(C)ccc1OCCSc1nc2ccc(NC(=O)c3cccs3)cc2s1 2.25%
Cc1ccc(CNS(=O)(=O)c2cc3c(cc2C)N(C)CCO3)cc1 -9.4%
Cc1ccc(Cn2ccnc2SCC(=O)Nc2ccc3c(c2)OCCO3)cc1 -4.16%
COc1ccc(/C=C/C(=O)Nc2ccc(Cl)cc2Cl)cc1 0.173%
CCN(CC)CCCNC(=O)C(=O)Nc1ccc2nc3n(c(=O)c2c1)CCCCC3 14.9%
Cc1ccc(NC(=O)c2ccc3c(c2)NC(=O)c2ccccc2S3)cc1 -7.51%
Cc1cc(C)cc(NC(=O)CCCc2nnc3n(CC(C)C)c(=O)c4sccc4n23)c1 7.46%
CC(=O)Nc1cccc(NC(=O)CSc2nccn2Cc2ccco2)c1 -5.01%
Cc1ccc(S(=O)(=O)C(CNC(=O)COc2ccc(Cl)cc2)c2ccco2)cc1 (stereo not drawn) 21.5%
Cc1ccc(CNC(=O)c2cccc(NC(=O)N3CCSc4ncccc43)c2)cc1 16.9%
COc1ccc(-c2cc(C(=O)Nc3sc4c(c3C(N)=O)CCC(C)C4)no2)cc1 (stereo not drawn) 2.41%
CCOc1cc(C2CC(=O)Nc3c2c(=O)nc(SCc2cccc(Cl)c2)n3C)ccc1O (stereo not drawn) -18.4%
O=C(Nc1cccc(Cl)c1)c1cc(S(=O)(=O)N2CCCc3ccccc32)ccc1F 2.57%
Cc1ccccc1CNC(=O)c1cc2cccc3c2n1CC(C)S3 (stereo not drawn) 6.45%
CC(=O)Nc1ccc(NC(=O)c2nc(SCc3ccccc3C)ncc2Cl)cc1 -8.57%
Cc1c(NC(=O)Nc2ccc(Cl)c(C(F)(F)F)c2)c(=O)n(-c2ccccc2)n1C -6.26%
CCOc1ccc(OCC)c(-n2cnnn2)c1 -4.42%
Cc1cccn2c(=O)cc(COc3ccc(NC(=O)C(C)Oc4ccccc4)cc3)nc12 (stereo not drawn) 6.42%
NS(=O)(=O)c1ccc(NC(=O)CN2CCN(c3ccc(F)cc3)CC2)cc1 4.63%
CCCCNC(=O)c1cc(-c2ccc(Cl)c(Cl)c2)on1 71.1%
CCc1ccc(C2CC(=O)NC(NC(=O)c3ccc(C(C)(C)C)cc3)=N2)cc1 (stereo not drawn) 0.735%
Cc1c(-c2ccccc2)c(=O)oc2c(CN3CCCC3)c(O)ccc12 12.9%
Cn1c(=O)[nH]c(=O)c2c1nc(NCCO)n2CC(O)COc1ccccc1 (stereo not drawn) 2.33%
O=C(CCCn1ccc2cc(S(=O)(=O)N3CCCC3)ccc21)NCc1ccc(Cl)cc1 -23.5%
COc1cccc(CNC(=O)CN2C(=O)COc3ccc(S(=O)(=O)N4CCCCCC4)cc32)c1 1.05%
CC=CC[C@@H](C)C(=O)[C@H]1C(=O)N[C@@H](C(C)C)C(=O)N(C)CC(=O)N(C)[C@@H](CC(C)C)C(=O)N[C@@H](C(C)C)C(=O)N(C)[C@@H](CC(C)C)C(=O)N[C@@H](C)C(=O)N[C@H](C)C(=O)N(C)[C@@H](CC(C)C)C(=O)N(C)[C@@H](CC(C)C)C(=O)N(C)[C@@H](C(C)C)C(=O)N1C -11.6%
CCOc1ccc(NC(=O)Cn2c(=O)n(Cc3ccc(C(=O)NCc4ccc(C)cc4)cc3)c(=O)c3ccccc32)cc1 -17.9%
Cc1ccc(CSC2=Nc3ccccc3C3=NC(CC(=O)NCc4cccs4)C(=O)N23)cc1 (stereo not drawn) 0.621%
Cc1ccc(CNC(=O)c2cc3c(s2)-c2ccc(Cl)cc2SC3)cc1 -4.25%
CN(C)c1ccc(NC(=O)CN2CCN(CC(=O)Nc3ccc(Br)cc3)CC2)cc1 5.94%
Cc1ccc(-c2nc3ncccc3o2)cc1NC(=O)c1ccccc1Br -4.36%
CCc1cccc(NC(=O)Cn2c(=O)n(CCC(=O)NCC3CCCO3)c(=O)c3cc(OC)c(OC)cc32)c1 (stereo not drawn) -3.36%

outcome, inactive:
COc1ccc2c(CNCc3ccco3)c(C(=O)O)n(Cc3ccccc3)c2c1
COCCNC(=O)Cn1cc2c(n1)-c1c(oc(C(=O)N3CCCC3)c1C)CC2
CCC(=O)N1CCN(c2nc3c(C)cccc3s2)CC1
COc1ccc2nc3sc(C(=O)N4CCN(c5ccc(F)cc5)CC4)cc3cc2c1
CCc1ccc(C(=O)CSc2nc(-c3ccccc3)nc3c2CCCC3)cc1
CCOC(=O)c1cc(-c2ccc(OC)cc2)n(CCC(=O)Nc2cccc(C(C)=O)c2)c1C
CCc1ccc(NC(=O)CSc2nc3c(sc4ccccc43)c(=O)n2CCN(CC)CC)cc1
Cc1cn2c(=O)cc(COC(=O)c3ccccc3F)nc2s1
O=C(CN1C(=O)C2(SCC(=O)N2c2ccccc2)c2ccccc21)NCCc1ccccc1 (stereo not drawn)
CCOc1ccc(-c2nnc(SCC(=O)c3ccc(F)cc3)n2-c2ccccc2)cc1
Cc1ccc(NC(=O)Cn2cc(C(=O)c3ccco3)c3ccccc32)c(C)c1
COc1cccc(OCc2cc(=O)n3cc(C)sc3n2)c1
Fc1ccccc1N1CCN(c2ncnc3onc(-c4cccc(Cl)c4)c23)CC1
Cc1ccc(Cl)cc1-n1ncc2c(NCCC3=CCCCC3)ncnc21
COc1ccc(-n2c(SCC(=O)NC3CCCCC3)nc3c([nH]c4ccccc43)c2=O)cc1
COc1ccc(-c2cc3c(=O)n(CC(=O)Nc4cc(C)ccc4C)ccn3n2)cc1
Cn1c(=O)c2c(-c3ccccc3Br)n(Cc3ccccc3)cc2n(C)c1=O
CCOc1ccc(/C=C/c2nc(C#N)c(Nc3ccc(OCC)cc3)o2)cc1
CC1CC(=O)N(CC(=O)Nc2ccc(F)cc2F)c2ccccc2S1 (stereo not drawn)
O=C(NCCc1ccc(Cl)cc1)c1ccc2c(c1)N(Cc1ccccc1F)C(=O)c1ccccc1S2(=O)=O
COc1ccc(NC(=O)Nc2cccc(-c3cn4cccnc4n3)c2)cc1
Cc1nc2ccn(Cc3ccccc3)c(=O)c2cc1C(=O)NCc1ccccc1F
CC(C)(C)c1ccc(-c2nc(S(=O)(=O)c3ccccc3)c(N3CCOCC3)o2)cc1
